Experimental data from article PMC6946799.
No constants are given. Whether binding was seen depends on the method and setting. Binding seen in cells or lysates may run through a third protein. Some entries that bind do so weakly or less than the wild type.

Amino acid sequences for entries named in this document (tags omitted).
UniProt Q0PC73: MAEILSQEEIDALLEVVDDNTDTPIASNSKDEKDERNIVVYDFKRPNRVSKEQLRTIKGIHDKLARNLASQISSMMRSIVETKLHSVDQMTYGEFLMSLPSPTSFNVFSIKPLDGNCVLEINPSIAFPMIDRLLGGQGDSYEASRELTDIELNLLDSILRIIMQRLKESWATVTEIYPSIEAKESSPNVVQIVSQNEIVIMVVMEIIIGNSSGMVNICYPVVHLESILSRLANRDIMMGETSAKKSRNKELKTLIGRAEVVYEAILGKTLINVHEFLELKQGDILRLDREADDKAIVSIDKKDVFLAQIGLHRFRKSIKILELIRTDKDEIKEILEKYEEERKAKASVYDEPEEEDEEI
UniProt Q0PC74: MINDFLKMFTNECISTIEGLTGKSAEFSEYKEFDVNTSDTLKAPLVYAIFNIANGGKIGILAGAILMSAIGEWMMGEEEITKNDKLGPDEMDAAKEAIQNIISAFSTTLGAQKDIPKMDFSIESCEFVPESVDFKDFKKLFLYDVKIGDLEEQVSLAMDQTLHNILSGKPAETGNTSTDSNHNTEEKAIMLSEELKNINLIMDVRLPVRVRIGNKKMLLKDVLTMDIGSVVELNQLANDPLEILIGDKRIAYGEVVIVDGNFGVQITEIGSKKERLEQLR
UniProt Q0PBI9: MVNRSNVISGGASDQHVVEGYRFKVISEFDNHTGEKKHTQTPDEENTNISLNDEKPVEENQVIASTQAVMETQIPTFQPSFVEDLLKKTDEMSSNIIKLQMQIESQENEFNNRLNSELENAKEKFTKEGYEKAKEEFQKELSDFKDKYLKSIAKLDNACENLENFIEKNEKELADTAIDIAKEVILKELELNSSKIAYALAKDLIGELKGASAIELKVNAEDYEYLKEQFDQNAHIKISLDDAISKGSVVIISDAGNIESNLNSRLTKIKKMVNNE
UniProt O32370: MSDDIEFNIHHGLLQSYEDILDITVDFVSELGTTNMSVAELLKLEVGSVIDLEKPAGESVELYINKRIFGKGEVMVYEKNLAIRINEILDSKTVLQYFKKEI
UniProt Q0PBJ0: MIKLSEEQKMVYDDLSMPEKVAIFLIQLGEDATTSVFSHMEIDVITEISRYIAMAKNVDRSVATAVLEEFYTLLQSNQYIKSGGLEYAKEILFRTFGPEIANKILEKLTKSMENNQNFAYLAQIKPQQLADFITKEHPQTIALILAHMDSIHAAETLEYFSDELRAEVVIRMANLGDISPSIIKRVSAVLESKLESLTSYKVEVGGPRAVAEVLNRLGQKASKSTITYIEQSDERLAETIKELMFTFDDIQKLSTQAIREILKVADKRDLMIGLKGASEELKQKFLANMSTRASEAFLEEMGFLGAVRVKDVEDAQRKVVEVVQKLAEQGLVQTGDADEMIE
UniProt Q0PBU4: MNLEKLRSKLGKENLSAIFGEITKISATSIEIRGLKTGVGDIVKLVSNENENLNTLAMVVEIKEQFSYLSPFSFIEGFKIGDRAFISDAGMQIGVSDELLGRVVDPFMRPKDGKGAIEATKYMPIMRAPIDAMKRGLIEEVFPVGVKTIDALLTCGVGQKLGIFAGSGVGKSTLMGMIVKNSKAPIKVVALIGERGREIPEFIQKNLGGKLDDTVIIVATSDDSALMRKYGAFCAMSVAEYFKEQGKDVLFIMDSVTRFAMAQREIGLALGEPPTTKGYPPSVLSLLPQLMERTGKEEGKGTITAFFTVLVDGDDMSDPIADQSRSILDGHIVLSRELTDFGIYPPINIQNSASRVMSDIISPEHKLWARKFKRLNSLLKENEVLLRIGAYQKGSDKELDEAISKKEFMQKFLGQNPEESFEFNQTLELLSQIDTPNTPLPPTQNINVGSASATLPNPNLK
UniProt Q0PBJ1: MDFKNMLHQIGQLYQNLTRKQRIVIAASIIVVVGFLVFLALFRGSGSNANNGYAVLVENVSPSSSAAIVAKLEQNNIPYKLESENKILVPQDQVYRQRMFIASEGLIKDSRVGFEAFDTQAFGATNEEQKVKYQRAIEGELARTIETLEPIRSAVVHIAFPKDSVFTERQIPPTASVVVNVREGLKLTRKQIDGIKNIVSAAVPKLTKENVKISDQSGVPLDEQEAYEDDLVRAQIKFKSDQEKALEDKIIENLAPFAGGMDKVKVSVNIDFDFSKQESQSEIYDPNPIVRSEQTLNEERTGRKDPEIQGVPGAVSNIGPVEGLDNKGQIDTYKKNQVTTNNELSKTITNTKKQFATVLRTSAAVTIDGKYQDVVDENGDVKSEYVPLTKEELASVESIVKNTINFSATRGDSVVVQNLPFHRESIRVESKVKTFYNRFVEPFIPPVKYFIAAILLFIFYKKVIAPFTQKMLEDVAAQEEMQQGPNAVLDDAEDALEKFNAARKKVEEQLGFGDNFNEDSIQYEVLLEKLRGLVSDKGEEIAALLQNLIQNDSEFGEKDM

Tests used:
Assay in all cases: co-IP; in vivo: intact C. jejuni cells cross-linked with 0.1% formaldehyde (30 min, 37°C), osmotic lysis, 1% Triton X-100 solubilisation; FLAG-tagged bait expressed from a plasmid in the respective single mutant (and double mutants lacking FliN, FliH or another C-ring protein) precipitated with anti-FLAG M2 affinity resin overnight at 4°C, washed with RIPA buffer; native preys detected by immunoblot with specific antisera
[1] = biological target: FliM-FLAG (Campylobacter jejuni 81-176) (UniProt Q0PC73)
[2] = biological target: FLAG-FliY (Campylobacter jejuni 81-176) (UniProt Q0PC74)
[3] = biological target: FLAG-FliH (Campylobacter jejuni 81-176) (UniProt Q0PBI9)
[4] = biological target: FLAG-FliN (Campylobacter jejuni 81-176) (UniProt O32370)
[5] = biological target: FliG-FLAG (Campylobacter jejuni 81-176) (UniProt Q0PBJ0)
[6] = biological target: FLAG-FliI (Campylobacter jejuni 81-176) (UniProt Q0PBU4)

FliF (from UniProt Q0PBJ1 1-560) was tested, and the binding [1] was “binds weakly” and the binding [2] was “binds weakly”.

For FliM (from UniProt Q0PC73 1-359), the binding [3] was “binds”, the binding [4] was “no binding” and the binding [2] was “binds”. The binding [5] was “binds weakly”.

In the case of FliH (from UniProt Q0PBI9 1-276), the binding [4] is reported as “no binding”, the binding [1] is reported as “binds” and the binding [6] is reported as “binds”.

With FliN (from UniProt O32370 1-102) the binding [3] was “no binding” and the binding [1] was “no binding”.

FliG (from UniProt Q0PBJ0 1-342) was tested, and the binding [1] was “binds weakly” and the binding [2] was “binds weakly”.

FliY (from UniProt Q0PC74 1-280) was tested, and the binding [4] was “binds” and the binding [1] was “binds”.
